These results are taken from article PMC5892938.

The list shows a part of the results. At the low end of the ranking, values are background and their order means little.

The target of this assay is GST-SBP-SLBP (stem-loop binding protein) (UniProt Q14493). The assay can be described thus: targeted RNA Bind-n-Seq.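 Further: DESeq read counts versus GST-SBP nonspecific binding control pulldown.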 To be noted: RBNS binding buffer: 25 mM Tris pH 7.5, 150 mM KCl, 3 mM MgCl2, 0.1% Tween, 0.5 mg/mL BSA, 1 mM DTT; 27 nM protein, 750 pM RNA pool; temperature not stated; high values mean tight binding.
On to “GGUCACGUCUCAAUCAACUCAUUCUCAGGAGUUUACUCCUGUUUUUUCAACAGCUCGCAGUCAAG”, for which the binding signal (log2 fold change) is -0.182.
For “GGUCACGUCUCAAUCAACUCUACUCCCAGGGAAAUCCCUGGCAAUGUCAACAGCUCGCAGUCAAG” the value was 0.107; for “GGUCACGUCUCAAUCAACUCUUUUUCCAGGGAAACCCCUGGCUUUCUCAACAGCUCGCAGUCAAG”, -0.118; for “GGUCACGUCUCAAUCAACUCUUUUUCCAGGGAAAUCCCUGGCUAUGUCAACAGCUCGCAGUCAAG”, 0.167.
For “GGUCACGUCUCAAUCAACUCUCUAGAGGGGGGGAAAACCCCUUUACCCUCAUUUUCAACAGCUCGCAGUCAAG” the value was -0.577; for “GGUCACGUCUCAAUCAACUCAUUUCCAGGAGUUUCCUCCUGCAUUCUCAACAGCUCGCAGUCAAG”, 0.0615; for “GGUCACGUCUCAAUCAACUCAGUCUCCAGGGAAAUCCCUGGCAAUCUCAACAGCUCGCAGUCAAG”, 0.4.
The same measure for “GGUCACGUCUCAAUCAACUCAUCGCCCAGGGAAACCCCUGGUAUUUUCAACAGCUCGCAGUCAAG”: -0.172; for “GGUCACGUCUCAAUCAACUCAUUUUCCAGGGAAACCCCUGGCUAUUUCAACAGCUCGCAGUCAAG”: -0.00667; for “GGUCACGUCUCAAUCAACUCUUUCCCCAGGGAAAGCCCUGGUAAUCUCAACAGCUCGCAGUCAAG”: -0.0641.
Take “GGUCACGUCUCAAUCAACUCAACUCCCAGGGAAACCCCUGGCAAAUUCAACAGCUCGCAGUCAAG”: the binding signal (log2 fold change) is -0.312.
The same measure for “GGUCACGUCUCAAUCAACUCAAUGGAGGGGGGGAAAACCCCUUUACCCUCAAAAUCAACAGCUCGCAGUCAAG”: 0.547; for “GGUCACGUCUCAAUCAACUCUACUCCCAGGGAAAGCCCUGGUAAAUUCAACAGCUCGCAGUCAAG”: 0.00551; for “GGUCACGUCUCAAUCAACUCAGUCUCAGGAGUUUUCUCCUGUAUAUUCAACAGCUCGCAGUCAAG”: -0.0619.
The same measure for “GGUCACGUCUCAAUCAACUCUUUCUCAGGAGUUUCCUCCUGUUAUGUCAACAGCUCGCAGUCAAG”: 0.0896; for “GGUCACGUCUCAAUCAACUCCUCAGAGGGGGGGAAAACCCCUUUACCCUCCAUUUCAACAGCUCGCAGUCAAG”: 0.0358; for “GGUCACGUCUCAAUCAACUCAUUAGAGGGGGGGAAAACCCCUUUACCCUCGUUAUCAACAGCUCGCAGUCAAG”: 0.00621.
For “GGUCACGUCUCAAUCAACUCUUCUCCCAGGGAAACCCCUGGCAAAUUCAACAGCUCGCAGUCAAG” the value was 0.154; for “GGUCACGUCUCAAUCAACUCAUCGGCCAGGGAAACCCCUGGGAAAUUCAACAGCUCGCAGUCAAG”, -0.211.
Turning to “GGUCACGUCUCAAUCAACUCUAAAGAGGGGGGGAAAACCCCUUUACCCUCAAACUCAACAGCUCGCAGUCAAG”, the binding signal (log2 fold change) was -0.0897.
For “GGUCACGUCUCAAUCAACUCUUUCUCAGGAGUUUACUCCUGUAAAUUCAACAGCUCGCAGUCAAG” the value was 0.0497; for “GGUCACGUCUCAAUCAACUCCUCGGAGGGGGGGAAAACCCCUUUACCCUCAAAAUCAACAGCUCGCAGUCAAG”, -0.0927; for “GGUCACGUCUCAAUCAACUCAAUAGAGGGGGGGAAAACCCCUUUACCCUCCACAUCAACAGCUCGCAGUCAAG”, -0.0786.
In the case of “GGUCACGUCUCAAUCAACUCCAUAGAGGGGGGGAAAACCCCUUUGCCCUCAACCUCAACAGCUCGCAGUCAAG”, the binding signal (log2 fold change) was 0.239.
The same measure for “GGUCACGUCUCAAUCAACUCAUCGUCCAGGGAAAGCCCUGGUUAUUUCAACAGCUCGCAGUCAAG”: -0.206; for “GGUCACGUCUCAAUCAACUCAAUCUCCAGGGAAAUCCCUGGUUUACUCAACAGCUCGCAGUCAAG”: -0.0502; for “GGUCACGUCUCAAUCAACUCAUUUUCCAGGGAAAGCCCUGGUUUACUCAACAGCUCGCAGUCAAG”: 0.0588.
“GGUCACGUCUCAAUCAACUCAGUUUCAGGAGUUUACUCCUGCUUAUUCAACAGCUCGCAGUCAAG”: the binding signal (log2 fold change) is -0.0343.
On to “GGUCACGUCUCAAUCAACUCUUCUUCAGGAGUUUUCUCCUGCUAACUCAACAGCUCGCAGUCAAG”, for which the binding signal (log2 fold change) was determined as 0.0439.
The same measure for “GGUCACGUCUCAAUCAACUCAAUUCCAGGAGUUUUCUCCUGCUAUGUCAACAGCUCGCAGUCAAG”: 0.179; for “GGUCACGUCUCAAUCAACUCUUUUUCCAGGGAAAGCCCUGGCUAAUUCAACAGCUCGCAGUCAAG”: 0.0598.
For “GGUCACGUCUCAAUCAACUCAUCGUCCAGGGAAACCCCUGGCAAAUUCAACAGCUCGCAGUCAAG” the value was 0.117.
For “GGUCACGUCUCAAUCAACUCUACUUCCAGGGAAACCCCUGGCUAACUCAACAGCUCGCAGUCAAG” the value was -0.031; for “GGUCACGUCUCAAUCAACUCAUCCCCCAGGGAAAGCCCUGGCUUAUUCAACAGCUCGCAGUCAAG”, 0.148; for “GGUCACGUCUCAAUCAACUCAUUCUCCAGGGAAACCCCUGGCAAAUUCAACAGCUCGCAGUCAAG”, -0.0206.
As to “GGUCACGUCUCAAUCAACUCUUAAGAGGGGGGGAAAACCCCUUUGCCCUCAAUGUCAACAGCUCGCAGUCAAG”, the binding signal (log2 fold change) is 0.191.
The same measure for “GGUCACGUCUCAAUCAACUCUACUUCAGGAGUUUGCUCCUGCAUAUUCAACAGCUCGCAGUCAAG”: -0.043.
For “GGUCACGUCUCAAUCAACUCCCCAGAGGGGGGGAAAACCCCUUUGCCCUCAAUAUCAACAGCUCGCAGUCAAG” the value was 0.552.
The same measure for “GGUCACGUCUCAAUCAACUCAACUCCCAGGGAAAUCCCUGGUUUAUUCAACAGCUCGCAGUCAAG”: -0.0536.
On to “GGUCACGUCUCAAUCAACUCAAUCCCAGGAGUUUCCUCCUGCAUAUUCAACAGCUCGCAGUCAAG”, for which the binding signal (log2 fold change) was 0.145.
For “GGUCACGUCUCAAUCAACUCAUUUCCCAGGGAAAUCCCUGGCUAACUCAACAGCUCGCAGUCAAG” the value was -0.117; for “GGUCACGUCUCAAUCAACUCAGUCUCAGGAGUUUCCUCCUGCUAAUUCAACAGCUCGCAGUCAAG”, -0.0987; for “GGUCACGUCUCAAUCAACUCAGUCUCAGGAGUUUCCUCCUGUUUUCUCAACAGCUCGCAGUCAAG”, -0.0718.
The same measure for “GGUCACGUCUCAAUCAACUCAUCGUCCAGGGAAAUCCCUGGCUAUUUCAACAGCUCGCAGUCAAG”: 0.00133; for “GGUCACGUCUCAAUCAACUCUUCGUCAGGAGUUUUCUCCUGCUUUCUCAACAGCUCGCAGUCAAG”: -0.0798.
For “GGUCACGUCUCAAUCAACUCCUUAGAGGGGGGGAAAACCCCUUUGCCCUCAUCUUCAACAGCUCGCAGUCAAG” the value was -0.191; for “GGUCACGUCUCAAUCAACUCUAUUUCCAGGGAAACCCCUGGCUUUUUCAACAGCUCGCAGUCAAG”, -0.0653.
